The source gives no read counts; variants with many changes may rest on few reads.

The values that follow come from the RNAGym collection of RNA variant scans (doi:10.7554/elife.90254).

B1: LINE1-mini (parent)
chain: GGCAGAGCUCAACACAGCGUGGCAAAGUGGCUGUGGCUAGACUGCC

In the data set the parent is B1. Nature of the data set: self-cleavage, relative activity (ratio to wild type); higher = more cleavage; in vitro, sequencing; the parent is a self-cleaving ribozyme.
For the variant GGCAGAUCUCAACACUGCGUUUCAAAGUGGCUGUGGCUAGAAUGCC [G7U A16U G21U G22U C42A], the self-cleavage came to 0.11.
Turning to GGCAGAUAUCAACACAGCGUGGCAAAUUGUCUGUGGCUAGAGGGCC [G7U C8A G27U G30U C42G U43G], the self-cleavage was 0.66.
The value for GGCAGACCUCAACACAGCGACGCAAAGUGGCUGUGGCUACACUGCC [G7C U20A G21C G40C] was 0; that for GGCAGACCUCAACACAGCGUGGCAAAGUGGCUCUGGCUAGAGUGCC [G7C G33C C42G] was 0.08; that for GGCAGAUCUCAACCCAUCGUGGCAAAAUGGCUGUGGCUUGACUGCC [G7U A14C G17U G27A A39U] was 0.25.
As to GGCAGAUCUCAACACGGCGUGGCUAAGUGGCUGUGGCUAGACUGCC [G7U A16G A24U], the self-cleavage was 0.05.
The result for GGCAGAUCUCCAUACAGCGUGGCAAAGUGGCUGUGGCUAGACUGCC [G7U A11C C13U] reads 0.02.
With GGCAGAUCUCAACACAGCGUGGCAGAGUGGCUGUGGCUACACUGCC [G7U A25G G40C], the self-cleavage amounted to 0.02.
Consider GGCAGACCUCAACACAGCGUUGUAAAGCGGCUGUGGCCAGACUGCC [G7C G21U C23U U28C U38C], for which the self-cleavage stood at 0.08.
In the case of GGCAGAUCUAAACAAAGCGUGGCAAAGUGGCUGUGGCUAGACUGCC [G7U C10A C15A], the self-cleavage came out at 0.01.
The result for GGCAGACCUCAACACAGCGUGGCAAAGCGGCUUUGGCUCGACUGCC [G7C U28C G33U A39C] reads 0.05; that for GGCAGAUCUCGACACAGCGUGCCAAAGUGGCGGUGGCUAGACUGCC [G7U A11G G22C U32G], 0.02.
The result for GGCAGAUGUCAACACAGCGUGGCAAAGCGGCUGUUGCUAGUCUGCC [G7U C8G U28C G35U A41U] reads 0.19; that for GGCAGAUCUCAACACAGCGUGGCGAAGUGGCUGUGCCUAGACUGCC [G7U A24G G36C], 0.05.
The result for GGCAGACCUCAACACAGCGUGGCAAAGUGACCGUGGCUAGACUGCC [G7C G30A U32C] reads 0.01.
Consider GGCAGACCUCAACACAGCGUGGCAAAGUGUAUGUGGCUAGGCUGCC [G7C G30U C31A A41G], for which the self-cleavage was 0.03.
For the variant GGCAGACCUCAACACAGCGUGGCAAAGUGGCUGUAGCUAUACUGCC [G7C G35A G40U], the self-cleavage stood at 0.03.
The result for GGCAGACCUCAACACAGCGUGGCAAAGUCGGUGUGGGUAGACUGAC [G7C G29C C31G C37G C45A] reads 0.01; that for GGCAGAUCUCAACACGCGGUGCGAAAUUGGCUGUGGCUCAACUGCC [G7U A16G G17C C18G G22C C23G G27U A39C G40A], 0.04.
The result for GGCAGAUCUAAACACACCGUGGCAAAGUAGCUGUGGCUAGACUGCC [G7U C10A G17C G29A] reads 0.03; that for GGCAGACCUCAACACAGCGUGGCAAAGAUGCGGUGGCGAGACUGCC [G7C U28A G29U U32G U38G], 0.02; that for GGCAGAUGUCAAUACAGCGUGGCAAAGUGGCUGCGGCUAGACUGCC [G7U C8G C13U U34C], 0.08.
The value for GGCAGACCUCAACACAGCGUUGCAAAGUGGCCGUGGCUAGACUGCC [G7C G21U U32C] was 0.06; that for GGCAGACCCGUACACAGCGUGGCAAAGUGACUGUGGUUAGACUGCC [G7C U9C C10G A11U G30A C37U] was 0.01; that for GGCAGAUGUCAACGCAGCGUGGCAUAGUGGCUGUGGCUAGACUGCC [G7U C8G A14G A25U] was 0.25.
For the variant GGCAGAUCUCAACUCAGCGUGGAAAAGUGGCGCUGGCUAGGCUGCC [G7U A14U C23A U32G G33C A41G], the self-cleavage was 0.09.
As for GGCAGACCGCAACACAGCGUGGCAAAGUGGCUGUGUCUAGACUGCC [G7C U9G G36U], the self-cleavage is 0.06.
The value for GGCAGAUCUCCACCCAGCGUGGCAAAGUGGCUGUCGCUAGACGGCC [G7U A11C A14C G35C U43G] was 0; that for GGCAGAUCUAAACACAGCGUGGCAAACUGCCUGUGGCUAGACUGCC [G7U C10A G27C G30C] was 0; that for GGCAGACCUCAACACAGCGUGGCAAAGUGGCUGCGGCUAGCCUGCC [G7C U34C A41C] was 0.05.
Consider GGCAGACCUCAACACAGCGGGGCAAAGUGGCCGUGGCUUGACUGCC [G7C U20G U32C A39U], for which the self-cleavage was determined as 0.09.
The result for GGCAGAUCUCAACACAGCGUGGCAGAUUGGCUGUGACUAGACUGCA [G7U A25G G27U G36A C46A] reads 0.05; that for GGCAGAUCUAAACACAGCGAGGCAAAGUGGCUGUGGCUAGACUUCC [G7U C10A U20A G44U], 0.02.
For GGCAGAUCUCAGCACAGCGUGGCAAAGUGGCUGAGGCUAGACUGCU [G7U A12G U34A C46U], the self-cleavage came out at 0.01.
For GGCAGAUCUCAACACGGCGUGGCAAAGAGGCUGUGGGUAGACUGCC [G7U A16G U28A C37G], the self-cleavage came to 0.02.
The value for GGCAGACCUCAACACAGCGUUGCAAGGUGGCUGUGGCUAGACUGCC [G7C G21U A26G] was 0; that for GGCAGAUCUCUAAACAGCGUUGCAAACUGGCUGUGGCUAGACUGCC [G7U A11U C13A G21U G27C] was 0.01; that for GGCAGACCUCAACACAGCGUGGCAAAGUAGCUGUGGUUAGACUGCC [G7C G29A C37U] was 0.05.
Take GGCAGACCUCAACACAGCGUGGCAAAGUGGCUUUGGCUCGACUGCC [G7C G33U A39C]: the self-cleavage came out at 0.
Turning to GGCAGAUGUCAACACAGCGUGGCAAAGCGGCUGUGCCUAGACUGCC [G7U C8G U28C G36C], the self-cleavage came out at 0.2.
The value for GGCAGAUCUCUACACAACGUGGCAAAGUGGCUGCGGCUAGACAGCA [G7U A11U G17A U34C U43A C46A] was 0.01; that for GGCAGAUCUCAACACCGCGUGGCAAAGUGGCUGUGGCUAUAGUGCA [G7U A16C G40U C42G C46A] was 0.25; that for GGCAGAUGUCAACGCAGGGUGGCAAAGUGGCUGUGGCUAGACUGCC [G7U C8G A14G C18G] was 0.01.
The result for GGCAGAUAUCAACACAGCGUGGCAAAGUGGCUGGGGCUAGACUGCC [G7U C8A U34G] reads 0.26; that for GGCAGAUCUCAACACAGCGUGGCCAAGUGGCUGUGGUUAGACUGCC [G7U A24C C37U], 0.03.
Turning to GGCAGACCUCAACACAGCGUGGCAAAGUGACUUUGUGAAGACUGCC [G7C G30A G33U G36U C37G U38A], the self-cleavage was 0.01.
The result for GGCAGAUCUCAACACAGCGUGGCACAGUGGCUGUGCCUCGGCUGCC [G7U A25C G36C A39C A41G] reads 0.08; that for GGCAGACCUCAACACAGCGUGGCAAAGUGGCUGUGCCUAGGCUGCC [G7C G36C A41G], 0.07; that for GGCAGAUUUCAACACAGCGUGGCAAAGUGCCUGUGGCUAGACUGCC [G7U C8U G30C], 0.3.
On to GGCAGAUCUCACCACAGCGAGGCAAAGUAGCUGAGGCUAGACUGCC [G7U A12C U20A G29A U34A], for which the self-cleavage was 0.01.
As to GGCAGAUCUCUACACAGCGUGGCAAAGUGGCUGUGGCUAGCCUGCC [G7U A11U A41C], the self-cleavage was found to be 0.04.
The result for GGCAGAUAUCAACACAGCGUGGCAAAGUGCCUGUGGCUAGACUGUC [G7U C8A G30C C45U] reads 0.17; that for GGCAGAUCUCGACACAGCGUGGCAAAGUGGCUAUGGCUAGACUGCC [G7U A11G G33A], 0.01; that for GGCAGAUAUCAACACAGCGUGGCAAAGUGGCUGUGGCUAGCCCGAC [G7U C8A A41C U43C C45A], 0.22.
On to GGCAGACCUCAACACAGCGUGGCAAAGUGGCUGUGGCUACACUGCG [G7C G40C C46G], for which the self-cleavage came to 0.09.
The result for GGCAGAUCUCAUCACAGCGCGGCAAAGGGGCAGUGGAUUGACUGGC [G7U A12U U20C U28G U32A C37A A39U C45G] reads 0.01.
